Laboratory results as given in PubChem BioAssay AID1345083 (National Center for Advancing Translational Sciences (NCATS), 2018).
In all, about 94,000 compounds went through this assay and about 6,200 (6.6%) were called active. The shares of active, inactive and inconclusive entries below differ from those in the screen. Calls follow the shape of the dose curve; as a rule, active = well fitted inhibition curve with a large enough effect; inconclusive = small, poorly fitted or top-dose-only effect; inactive = flat fitted curve, though single readings scatter. A potency beside an inconclusive call is a rough fit, not a confirmed value.

experiment: Cytotoxic Profiling in HEK 293 Cell Line of Diverse Libraries Using Quantitative High-Throughput Screening; conditions: HEK 293 viability, ATP luminescence (CellTiter-Glo), 48-72 h; series mostly up to 115 µM; also: nearly all actives have a fitted effect of over 60% in size
Outline: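 Luminescence from cellular ATP, measured with CellTiter-Glo, indicates HEK 293 viability. Cells plated at 250 cells/well are treated with compound for 48 or 72 hr at 37 degree Celsius before reagent addition.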
Potency is read from the fitted curve at half-maximal effect; tags tell the direction and shape of the fitted curve.

Q: For `N#Cc1nccnc1N1CCN(C2CCC3(CCNCC3)CC2)CC1`, which Potency is on record?
A: The Potency was inconclusive: 70.8 µM [inhibitor, partial curve, poor fit].

Q: With `COCCN1CCCC1c1nc(C2CN(C(=O)NCc3ccco3)C2)no1` (stereo not given) as the compound, how does the Potency read?
A: The Potency was inconclusive: 89.1 µM [inhibitor, single point].

Q: With `COc1ccc2ccc(OCc3nc(C(=O)N4CCC(NC(C)=O)CC4)co3)cc2c1` as the compound, how does the Potency read?
A: Its Potency is inconclusive: 89.1 µM [inhibitor, single point].

Q: Which Potency does the source give for `NC(=O)c1cccc(-c2ccc3c(n2)CN(Cc2ccc(F)cc2)C(=O)CO3)c1` here?
A: Its Potency is inconclusive: 63.1 µM [inhibitor, partial curve, poor fit].

Q: With `COc1ccccc1Nc1ncc2c(n1)CN(C(=O)c1ccc(Oc3ccccc3)cc1)CCN2` as the compound, how does the Potency read?
A: The Potency was active: 35.5 µM.

Q: With `CC(C)CN1C(=O)c2cccn2CC1C(=O)N1CCOCC1` (stereo not given) as the compound, how does the Potency read?
A: The Potency was “inactive”.

Q: With `COc1ccc(-c2cc(C[C@H]3CNCC[C@H]3CC(=O)N3CCC(n4c(=O)[nH]c5ccccc54)CC3)no2)cc1` as the compound, how does the Potency read?
A: Its Potency is inconclusive: 79.4 µM [inhibitor, single point].

Q: For `O=C1NC2(CCN(Cc3ccc(OC(F)(F)F)cc3)C2)Oc2ccccc21` (stereo not given), which Potency is on record?
A: Its Potency is inconclusive: 50.1 µM [inhibitor, partial curve, poor fit].

Q: Which Potency does the source give for `COCCNC(=O)c1c(C)oc2c1CN(Cc1cccc(F)c1)CC2` here?
A: The Potency was inconclusive: 56.2 µM [inhibitor, partial curve, poor fit].

Q: With `O=C(c1noc(-c2ccc(F)cc2)n1)N1CCN(c2ccccc2Cl)CC1` as the compound, how does the Potency read?
A: The Potency was inconclusive: 89.1 µM [inhibitor, single point].

Q: Which Potency does the source give for `Cc1cc(=O)n(CC(=O)NCc2ccccc2Br)c(N(C)Cc2ccccc2)n1` here?
A: Its Potency is inconclusive: 50.1 µM [inhibitor, partial curve, poor fit].

Q: For `COc1ccc(-n2nc(C3CCCN(C(=O)Cc4cccc(Cl)c4)C3)[nH]c2=O)cc1` (stereo not given), which Potency is on record?
A: The Potency was inconclusive: 100 µM [inhibitor, single point].

Q: With `Cc1ccccc1S(=O)(=O)N1CCC(CCC(=O)NCCN2CCOCC2)CC1` as the compound, how does the Potency read?
A: Its Potency is “inactive”.

Q: For `COCCCNC(=O)C(NC(=O)c1ccc(C)cc1)C1CCN(C(=O)c2cccs2)CC1` (stereo not given), which Potency is on record?
A: Its Potency is “inactive”.

Q: With `O=C(Nc1ccccc1)NC1CCN(c2ccc3nnc(C4CC4)n3n2)C1` (stereo not given) as the compound, how does the Potency read?
A: Its Potency is “inactive”.

Q: For `Cc1ccc(OCc2nc(C3CN(C(=O)C4(c5ccccc5)CC4)C3)no2)cc1`, which Potency is on record?
A: Its Potency is inconclusive: 89.1 µM [inhibitor, single point].

Q: With `O=C(c1ccc2c(c1)N(C(=O)c1ccccc1)CC2)N1CCN(c2cccc(Cl)c2)CC1` as the compound, how does the Potency read?
A: The Potency was active: 31.6 µM.

Q: For `Cc1cc2nc3n(c(=O)c2n1CC(=O)NC1CCCCC1)CCCC3`, which Potency is on record?
A: The Potency was “inactive”.

Q: For `COc1ccc(C(=O)N2CCC[C@@H]2C(=O)N2CCCC(c3nc4ccncc4[nH]3)C2)cc1` (stereo not given in full), which Potency is on record?
A: Its Potency is “inactive”.

Q: Which Potency does the source give for `Cc1cccc(CN2C[C@@H]3[C@H](C2)N(Cc2ccc(O)cc2)C(=O)C(C)(C)[S+]3(=O)[O-])c1` here?
A: Its Potency is inconclusive: 100 µM [inhibitor, single point].

Q: With `O=[S+]1([O-])N(c2ccccc2)C[C@@H](O)[C@]12CCN(Cc1ccc(OC(F)F)cc1)C2` as the compound, how does the Potency read?
A: Its Potency is inconclusive: 22.4 µM [inhibitor, full curve, poor fit].

Q: With `Cc1ccc(-c2ncc(C(=O)N3CCC(Nc4ncccn4)CC3)c(=O)[nH]2)cc1` as the compound, how does the Potency read?
A: Its Potency is “inactive”.

Q: Which Potency does the source give for `CCOc1ccc(NC(=O)Cn2c(C)ccc(NC(=O)Nc3cccc(C)c3)c2=O)cc1` here?
A: The Potency was active: 39.8 µM.

Q: With `O=C(NC[C@H]1Cn2cc(-c3ccccc3)nc2CO1)Nc1ccc(F)cc1` as the compound, how does the Potency read?
A: The Potency was “inactive”.

Q: With `COc1cccc(C(=O)N2CCC3(CCNCC3)CC2)c1C` as the compound, how does the Potency read?
A: The Potency was inconclusive: 79.4 µM [inhibitor, single point].

Q: With `CCCN1CCN(C(=O)C2CCCN(c3cnn(Cc4ccccc4)c(=O)c3)C2)CC1` (stereo not given) as the compound, how does the Potency read?
A: The Potency was “inactive”.

Q: With `CCc1ccc(CNC(=O)CN2C(=O)C(c3ccccc3)=NC23CCCC3)cc1` as the compound, how does the Potency read?
A: The Potency was inconclusive: 56.2 µM [inhibitor, partial curve, poor fit].

Q: For `COc1ccc(OCC(O)CN2CCC(=O)N(Cc3ccccc3)Cc3sccc32)cc1` (stereo not given), which Potency is on record?
A: Its Potency is inconclusive: 50.1 µM [inhibitor, partial curve, poor fit].

Q: With `COc1cc(CNCCc2ccc(Cl)cc2)ccc1OCC(O)CN1CCOCC1` (stereo not given) as the compound, how does the Potency read?
A: The Potency was inconclusive: 79.4 µM [inhibitor, partial curve].

Q: For `Cc1nn(-c2ccccc2)c2c1C(C(C)C)N(C1CN(C(=O)c3ccc(Cl)cc3)C1)C2=O` (stereo not given), which Potency is on record?
A: The Potency was active: 31.6 µM.

Q: With `Cn1nc(C(=O)N2CCn3nc(Cc4ccccc4)cc3C2)ccc1=O` as the compound, how does the Potency read?
A: Its Potency is “inactive”.

Q: Which Potency does the source give for `COc1ccc(CN2C(=O)[C@@H]3C[C@@H](O)CN3C3(CN(C4CCCCC4)C3)C2=O)cc1` here?
A: The Potency was “inactive”.

Q: For `O=C1CC2(CCN([S+](=O)([O-])c3cccc(C(F)(F)F)c3)CC2)Oc2cc(Cl)ccc21`, which Potency is on record?
A: Its Potency is active: 31.6 µM.

Q: For `COc1cccc(-c2nn(-c3ccccc3)c(OC(C)=O)c2-c2ccc(NC(=O)C3CCCC3)cc2)c1`, which Potency is on record?
A: The Potency was inconclusive: 89.1 µM [inhibitor, partial curve, poor fit].

Q: With `COc1ccc(NC(=O)Cn2c(C)cc3nc4n(c(=O)c32)CCCCC4)c(OC)c1` as the compound, how does the Potency read?
A: The Potency was “inactive”.

Q: For `COc1ccc(C(=O)N2CCCC(c3nn(-c4ccc(Cl)cc4)c(=O)[nH]3)C2)cc1` (stereo not given), which Potency is on record?
A: The Potency was inconclusive: 79.4 µM [inhibitor, partial curve].

Q: For `O=C(NCC1CC1)c1ccc2nnc(Cc3ccco3)n2c1`, which Potency is on record?
A: Its Potency is “inactive”.

Q: Which Potency does the source give for `Cc1ccc(-c2cc(N3CCCN(C(=O)c4ccco4)CC3)n[nH]2)cc1C` here?
A: The Potency was inconclusive: 50.1 µM [inhibitor, partial curve, poor fit].

Q: Which Potency does the source give for `CC(=O)N1CCCC(COc2ccccc2C(=O)N2CCC(C)CC2)C1` (stereo not given) here?
A: The Potency was “inactive”.

Q: Which Potency does the source give for `CN1C(=O)CCC2(C(=O)O)CCCC=C12` (stereo not given) here?
A: Its Potency is “inactive”.

Q: With `Fc1ccc(-c2noc([C@@H]3CCCN3Cc3ccccc3)n2)nc1` as the compound, how does the Potency read?
A: The Potency was inconclusive: 70.8 µM [inhibitor, full curve, poor fit].

Q: With `CN(C)c1ncc2c(n1)C(C)(C(=O)Nc1ccc(Cl)cc1)CCC2` (stereo not given) as the compound, how does the Potency read?
A: The Potency was inconclusive: 112 µM [inhibitor, partial curve].

Q: Which Potency does the source give for `O=C(CCCc1ccccc1)N1CCN(C(=O)c2nnn3c2COC(c2ccccc2)C3)CC1` (stereo not given) here?
A: The Potency was “inactive”.

Q: Which Potency does the source give for `NC(=O)c1cccc(CN2CCC3(CC2)Cc2ccccc2N(C(=O)c2ccc(Cl)cc2)C3)c1` here?
A: Its Potency is active: 39.8 µM.

Q: With `CC(C(=O)N1CCOCC1)N1C(=O)COc2ccc(C(=O)COc3ccc(Cl)cc3)cc21` (stereo not given) as the compound, how does the Potency read?
A: The Potency was inconclusive: 56.2 µM [inhibitor, partial curve, poor fit].

Q: Which Potency does the source give for `COCCn1c(C)cnc1CCNS(=O)(=O)c1ccc2c(c1)CCC2` here?
A: Its Potency is inconclusive: 50.1 µM [inhibitor, partial curve, poor fit].

Q: With `COc1cccc(CNC(=O)C2CCN(c3cc(C(F)(F)F)nc(C)n3)CC2)c1` as the compound, how does the Potency read?
A: Its Potency is inconclusive: 56.2 µM [inhibitor, partial curve, poor fit].

Q: Which Potency does the source give for `CCN1c2cc(C(=O)NCc3ccc(C(C)C)cc3)ccc2C(=O)N2CCCCCC21` (stereo not given) here?
A: Its Potency is inconclusive: 25.1 µM [inhibitor, partial curve, poor fit].

Q: With `O=C(Cc1cccc(Cl)c1)NC1CCN(c2ccnc3ccnn23)C1` (stereo not given) as the compound, how does the Potency read?
A: Its Potency is inconclusive: 89.1 µM [inhibitor, partial curve, poor fit].

Q: For `O=S(=O)(c1ccc(Cl)cc1)c1nnn2c1nc(NCc1ccc(F)cc1)c1ccccc12`, which Potency is on record?
A: The Potency was inconclusive: 89.1 µM [inhibitor, partial curve, poor fit].

Q: With `CCc1cccc(NC(=O)N2CCCC(c3noc(COc4ccccc4F)n3)C2)c1` (stereo not given) as the compound, how does the Potency read?
A: Its Potency is inconclusive: 79.4 µM [inhibitor, single point].

Q: Which Potency does the source give for `O=C(c1cccc2[nH]ccc12)N1CCC(N2C(=O)C(OCC3CC3)C23CCOCC3)CC1` (stereo not given) here?
A: The Potency was “inactive”.

Q: For `O=C(c1cccc(F)c1)N1CCCC(c2noc(COc3ccccc3)n2)C1` (stereo not given), which Potency is on record?
A: The Potency was inconclusive: 89.1 µM [inhibitor, single point].

Q: For `CCc1cc(N2CCN(C(=O)[C@H]3CCC[C@@H](O)C3)CC2)ncn1`, which Potency is on record?
A: Its Potency is “inactive”.

Q: With `COc1ccc(-c2onc(C)c2C(=O)NCCSCc2ccco2)cc1` as the compound, how does the Potency read?
A: The Potency was inconclusive: 79.4 µM [inhibitor, partial curve].

Q: With `Cn1cc(-c2cnc(Nc3ccc(N4CCOCC4)cc3)c3c2CCO3)cn1` as the compound, how does the Potency read?
A: The Potency was inconclusive: 112 µM [inhibitor, single point].

Q: For `CN(C)c1cccc(-c2cnc(Nc3cncnc3)c3c2CCO3)c1`, which Potency is on record?
A: The Potency was inconclusive: 56.2 µM [inhibitor, partial curve, poor fit].

Q: Which Potency does the source give for `O=C(NCc1cccs1)c1ccc2nnc(-c3ccc(Cl)cc3)n2c1` here?
A: Its Potency is inconclusive: 50.1 µM [inhibitor, partial curve, poor fit].

Q: For `CCN1c2cc(C(=O)Nc3ccc(OC)c(F)c3)ccc2C(=O)N2CCCCCC21` (stereo not given), which Potency is on record?
A: The Potency was inconclusive: 39.8 µM [inhibitor, full curve, poor fit].

Q: Which Potency does the source give for `C[S+](=O)([O-])NC1CCN(Cc2ccc(-c3ccsc3)cc2)C1` (stereo not given) here?
A: Its Potency is inconclusive: 50.1 µM [inhibitor, partial curve, poor fit].

Q: With `COc1ccc(-c2cc(N3CCC(NC(=O)c4cccc(OC(F)(F)F)c4)C3)n[nH]2)cc1` (stereo not given) as the compound, how does the Potency read?
A: Its Potency is active: 39.8 µM.

Q: For `Cc1n[nH]c(C)c1CCNC(=O)c1ccccc1OC1CCN(Cc2ccccn2)CC1`, which Potency is on record?
A: Its Potency is “inactive”.

Q: For `Cc1oc(-c2cccc(Oc3ccccc3)c2)nc1CN(C)CCCO`, which Potency is on record?
A: The Potency was inconclusive: 44.7 µM [inhibitor, partial curve, poor fit].

Q: For `O=C(Cc1c[nH]c2ncc(-c3ccccc3C(F)(F)F)cc12)NCc1cccnc1`, which Potency is on record?
A: Its Potency is inconclusive: 100 µM [inhibitor, partial curve].

Q: Which Potency does the source give for `COCCCNC(=O)C1CCN(c2nccc(Nc3ccccc3F)n2)CC1` here?
A: The Potency was inconclusive: 89.1 µM [inhibitor, partial curve, poor fit].
